According to the supplement of paper PMC10369915:
Some of the results follow. Cut-off read from the data, not from the text of the source: active = 3.2 or more and inactive = the rest. Only a few entries rise above the background.

Legend:
Test in all cases: enrichment score (SH2-bound / input frequency) (ratio); bacterial display of known human phosphotyrosine sites (pTyr-Var adds point mutants) read by sequencing; higher = stronger binding; tyrosines were phosphorylated by kinases first
Conditions in all cases: peptide library: pTyr-Var
SHP2 C-SH2 domain E139D = biological target: SHP2 C-SH2 domain E139D
[1] = biological target: SHP2 C-SH2 domain wild-type
SHP2 N-SH2 domain L43F = biological target: SHP2 N-SH2 domain L43F
SHP2 N-SH2 domain T42A = biological target: SHP2 N-SH2 domain T42A
SHP2 N-SH2 domain T52S = biological target: SHP2 N-SH2 domain T52S
[2] = biological target: SHP2 N-SH2 domain wild-type

Measured: enrichment score
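Note: displayed peptides selected on beads carrying the immobilized SH2 domain, with library peptides lacking any tyrosine serving as negative controls.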

RLAKRYLIWEC [SCN5A_Y694_Q692K]
inactive: SHP2 C-SH2 domain E139D 0.573 | [1] 0.739 | SHP2 N-SH2 domain L43F 0.524 | SHP2 N-SH2 domain T42A 0.72 | SHP2 N-SH2 domain T52S 0.557 | [2] 0.681

LVMFIYAISGM [SCN1A_Y1684_F1687S]
inactive: SHP2 C-SH2 domain E139D 3.02 | [2] 2.76
active: [1] 3.71 | SHP2 N-SH2 domain L43F 3.77 | SHP2 N-SH2 domain T42A 3.39 | SHP2 N-SH2 domain T52S 3.25

HLAQRYLIWEC [SCN5A_Y694_R689H]
inactive: SHP2 C-SH2 domain E139D 1.29 | [1] 1.7 | SHP2 N-SH2 domain L43F 1.11 | SHP2 N-SH2 domain T42A 1.05 | SHP2 N-SH2 domain T52S 1.02 | [2] 1.65

MSNSAYVKREV [SCN1A_Y1694_F1692S]
inactive: SHP2 C-SH2 domain E139D 0.669 | [1] 0.667 | SHP2 N-SH2 domain L43F 0.657 | SHP2 N-SH2 domain T42A 0.571 | SHP2 N-SH2 domain T52S 0.59 | [2] 0.77

DEEPPHRGPFC [SASH1_Y551_Y551H]
inactive: SHP2 C-SH2 domain E139D 0.605 | [1] 0.473 | SHP2 N-SH2 domain L43F 0.584 | SHP2 N-SH2 domain T42A 0.529 | SHP2 N-SH2 domain T52S 0.465 | [2] 0.479

RLAQRYLIWEC [SCN5A_Y694]
inactive: SHP2 C-SH2 domain E139D 1.23 | [1] 1.26 | SHP2 N-SH2 domain L43F 1.07 | SHP2 N-SH2 domain T42A 1 | SHP2 N-SH2 domain T52S 1.26 | [2] 1.16

EEQKKYFNAVK [SCN5A_Y1494_M1498V_YF]
inactive: SHP2 C-SH2 domain E139D 0.802 | [1] 0.841 | SHP2 N-SH2 domain L43F 0.664 | SHP2 N-SH2 domain T42A 0.848 | SHP2 N-SH2 domain T52S 0.802 | [2] 0.873

LVMFTYAIFGM [SCN1A_Y1684_I1683T]
inactive: SHP2 C-SH2 domain E139D 1.7 | [1] 1.88 | SHP2 N-SH2 domain L43F 1.62 | SHP2 N-SH2 domain T42A 1.44 | SHP2 N-SH2 domain T52S 1.83 | [2] 1.67

SGRPGYCLGTR [SCO1_Y60]
inactive: SHP2 C-SH2 domain E139D 0.773 | [1] 1.04 | SHP2 N-SH2 domain L43F 0.875 | SHP2 N-SH2 domain T42A 0.762 | SHP2 N-SH2 domain T52S 0.933 | [2] 1.06

EQKKYYNAMKK [SCN5A_Y1495]
inactive: SHP2 C-SH2 domain E139D 1.4 | [1] 1.89 | SHP2 N-SH2 domain L43F 1.69 | SHP2 N-SH2 domain T42A 1.53 | SHP2 N-SH2 domain T52S 1.59 | [2] 1.65

HVPEEYKPKQG [SAXO2_Y37]
inactive: SHP2 C-SH2 domain E139D 0.774 | [1] 0.674 | SHP2 N-SH2 domain L43F 0.839 | SHP2 N-SH2 domain T42A 0.463 | SHP2 N-SH2 domain T52S 0.5 | [2] 0.627

NKVFTYIFIME [SCN4A_Y1074_D1069N]
inactive: SHP2 C-SH2 domain E139D 1.37 | [1] 2.15 | SHP2 N-SH2 domain L43F 1.76 | SHP2 N-SH2 domain T42A 1.47 | SHP2 N-SH2 domain T52S 1.28 | [2] 1.74

PHMQTYEVDLN [SDHB_Y61]
inactive: SHP2 C-SH2 domain E139D 0.783 | [1] 0.707 | SHP2 N-SH2 domain L43F 0.644 | SHP2 N-SH2 domain T42A 0.699 | SHP2 N-SH2 domain T52S 0.775 | [2] 0.776

EQKRFYNAMKK [SCN5A_Y1495_K1493R_YF]
inactive: SHP2 C-SH2 domain E139D 1.29 | [1] 1.21 | SHP2 N-SH2 domain L43F 1.06 | SHP2 N-SH2 domain T42A 1.11 | SHP2 N-SH2 domain T52S 1.14 | [2] 1.31

EQKKYSNAMKK [SCN5A_Y1495_Y1495S]
inactive: SHP2 C-SH2 domain E139D 0.902 | [1] 0.912 | SHP2 N-SH2 domain L43F 0.942 | SHP2 N-SH2 domain T42A 0.59 | SHP2 N-SH2 domain T52S 0.826 | [2] 1.09

FMMMRYSQNVR [SDAD1_Y656]
inactive: SHP2 C-SH2 domain E139D 1.89 | [1] 1.47 | SHP2 N-SH2 domain L43F 1.86 | SHP2 N-SH2 domain T42A 1.81 | SHP2 N-SH2 domain T52S 1.87 | [2] 2.06

RPSRQYATRDV [SCAMP3_Y35_L38R]
inactive: SHP2 C-SH2 domain E139D 0.211 | [1] 0.297 | SHP2 N-SH2 domain L43F 0.337 | SHP2 N-SH2 domain T42A 0.211 | SHP2 N-SH2 domain T52S 0.23 | [2] 0.345

ESTPLYPMLFG [SCLY_Y280_F276S]
inactive: SHP2 C-SH2 domain E139D 1.02 | [1] 0.985 | SHP2 N-SH2 domain L43F 0.923 | SHP2 N-SH2 domain T42A 0.857 | SHP2 N-SH2 domain T52S 0.887 | [2] 1.11

LVMFIYAIFGM [SCN1A_Y1684]
inactive: SHP2 C-SH2 domain E139D 3.16 | [1] 2.53 | SHP2 N-SH2 domain L43F 2.32 | SHP2 N-SH2 domain T42A 2.42 | SHP2 N-SH2 domain T52S 2.72 | [2] 2.25

QCTSHYPEHVC [SART3_Y541_D540H]
inactive: SHP2 C-SH2 domain E139D 1.36 | [1] 1.2 | SHP2 N-SH2 domain L43F 1.24 | SHP2 N-SH2 domain T42A 1.15 | SHP2 N-SH2 domain T52S 1.27 | [2] 1.11

ATRDVYNPFET [SCAMP3_Y41_L38R]
inactive: SHP2 C-SH2 domain E139D 0.842 | [1] 0.826 | SHP2 N-SH2 domain L43F 0.863 | SHP2 N-SH2 domain T42A 0.835 | SHP2 N-SH2 domain T52S 0.681 | [2] 0.664

ATLDVYNPFET [SCAMP3_Y41]
inactive: SHP2 C-SH2 domain E139D 0.769 | [1] 0.722 | SHP2 N-SH2 domain L43F 0.793 | SHP2 N-SH2 domain T42A 0.724 | SHP2 N-SH2 domain T52S 0.964 | [2] 0.985

EEQKRYYNAMK [SCN5A_Y1494_K1493R]
inactive: SHP2 C-SH2 domain E139D 0.687 | [1] 0.512 | SHP2 N-SH2 domain L43F 0.594 | SHP2 N-SH2 domain T42A 0.547 | SHP2 N-SH2 domain T52S 0.659 | [2] 0.589

IIQRAYRRHLL [SCN1A_Y1926]
inactive: SHP2 C-SH2 domain E139D 0.334 | [1] 0.24 | SHP2 N-SH2 domain L43F 0.244 | SHP2 N-SH2 domain T42A 0.23 | SHP2 N-SH2 domain T52S 0.355 | [2] 0.373

SGRSGYCLGTR [SCO1_Y60_P58S]
inactive: SHP2 C-SH2 domain E139D 0.98 | [1] 0.789 | SHP2 N-SH2 domain L43F 0.873 | SHP2 N-SH2 domain T42A 0.805 | SHP2 N-SH2 domain T52S 1.05 | [2] 0.928

EQKRYYNAMKK [SCN5A_Y1495_K1493R]
inactive: SHP2 C-SH2 domain E139D 1.2 | [1] 1.05 | SHP2 N-SH2 domain L43F 1.14 | SHP2 N-SH2 domain T42A 1.12 | SHP2 N-SH2 domain T52S 0.897 | [2] 1.27

EQKKFYNAVKK [SCN5A_Y1495_M1498V_YF]
inactive: SHP2 C-SH2 domain E139D 1.05 | [1] 0.824 | SHP2 N-SH2 domain L43F 0.675 | SHP2 N-SH2 domain T42A 0.714 | SHP2 N-SH2 domain T52S 0.885 | [2] 0.708

EEQKKYSNAMK [SCN5A_Y1494_Y1495S]
inactive: SHP2 C-SH2 domain E139D 0.55 | [1] 0.691 | SHP2 N-SH2 domain L43F 0.701 | SHP2 N-SH2 domain T42A 0.441 | SHP2 N-SH2 domain T52S 0.457 | [2] 0.806

EEQKKYYNATK [SCN5A_Y1494_M1498T]
inactive: SHP2 C-SH2 domain E139D 0.438 | [1] 0.52 | SHP2 N-SH2 domain L43F 0.294 | SHP2 N-SH2 domain T42A 0.38 | SHP2 N-SH2 domain T52S 0.642 | [2] 0.584

EQKKFYNATKK [SCN5A_Y1495_M1498T_YF]
inactive: SHP2 C-SH2 domain E139D 0.671 | [1] 0.802 | SHP2 N-SH2 domain L43F 0.543 | SHP2 N-SH2 domain T42A 0.654 | SHP2 N-SH2 domain T52S 0.577 | [2] 0.936

LVMFIYDIFGM [SCN1A_Y1684_A1685D]
inactive: SHP2 N-SH2 domain L43F 3.06 | SHP2 N-SH2 domain T42A 2.88 | [2] 3.19
active: SHP2 C-SH2 domain E139D 3.96 | [1] 3.99 | SHP2 N-SH2 domain T52S 3.7

LVMFISAIFGM [SCN1A_Y1684_Y1684S]
inactive: SHP2 C-SH2 domain E139D 2.34 | [1] 2 | SHP2 N-SH2 domain L43F 2.12 | SHP2 N-SH2 domain T42A 1.69 | SHP2 N-SH2 domain T52S 2.38 | [2] 2.44

GSESDYIIMPN [SCARB1_Y133_V135I]
inactive: SHP2 C-SH2 domain E139D 0.477 | [1] 0.429 | SHP2 N-SH2 domain L43F 0.699 | SHP2 N-SH2 domain T42A 0.585 | SHP2 N-SH2 domain T52S 0.557 | [2] 0.545

EQKKFYNAMKK [SCN5A_Y1495_YF]
inactive: SHP2 C-SH2 domain E139D 1.16 | [1] 1.06 | SHP2 N-SH2 domain L43F 0.949 | SHP2 N-SH2 domain T42A 0.943 | SHP2 N-SH2 domain T52S 0.936 | [2] 1.12

DEQKKYYNAMK [SCN5A_Y1494_E1489D]
inactive: SHP2 C-SH2 domain E139D 0.663 | [1] 0.554 | SHP2 N-SH2 domain L43F 0.536 | SHP2 N-SH2 domain T42A 0.54 | SHP2 N-SH2 domain T52S 0.603 | [2] 0.658

EEQKKNYNAMK [SCN5A_Y1494_Y1494N]
inactive: SHP2 C-SH2 domain E139D 0.736 | [1] 0.605 | SHP2 N-SH2 domain L43F 0.608 | SHP2 N-SH2 domain T42A 0.53 | SHP2 N-SH2 domain T52S 0.665 | [2] 0.776

HVLEEYKPKQG [SAXO2_Y37_P34L]
inactive: SHP2 C-SH2 domain E139D 0.723 | [1] 0.824 | SHP2 N-SH2 domain L43F 0.835 | SHP2 N-SH2 domain T42A 0.797 | SHP2 N-SH2 domain T52S 0.579 | [2] 0.758
